# The supplement of paper PMC8728848
# The other results are listed elsewhere or left out.
# B1: PX9937B-bvu-524-33-524 (Bacteroides vulgatus) (protein)
# chain: GTAYWKNPDQFTAFNTGLHALLREKSYNFFLLGEPRADIYGDNPIGGEASQGMERLPFNTINKENVGISNYGDMYKIINQINQMIAKTTETTILTEATQNYYLGEAYGMRAYLYFHLLRSWGDVVLYLDYTEGQNLDLSNITKGVSPATEVMEQIKKDIQASENAFGSDYSFKLGRHFWSAAATQMLKGEAYLWSGRQMNGGNSDYTIAKNAFENVKKADVGLVTSSFKDIFSFENKKNKEMIFTIHNGKDEYEMWGGYYRMRLIPAQDKMVKIYCDENGNSFVGTPDAQLNGLTQLQVRREFYFKGFRNNDTRWTTSLKAVYKKDAQGVVSYFGPITYKFQGTMLEGGSTRSFLDDFPIYRYADCLLQLAMAKVLLGEDPTEEINAVRERAYGSKYFNEHKAEIAYPNDNDPEFYTDNKWMKPDNAGALEAILKERLREFMFEGKRWYDIRLLGWDYVHQYSSAEQSRLLWPIDAGTLTNNSALKQTPGYE
# Experiments:
# Experiment in all cases: glycan array binding signal (z-score within array); higher = stronger binding
# Settings in all cases: glycan notation: IUPAC condensed, linker removed
# [1] = molecular target: GlcNAc(b1-2)[GlcNAc(b1-4)]Man(a1-3)[GlcNAc(b1-4)][GlcNAc(b1-2)[GlcNAc(b1-6)]Man(a1-6)]Man(b1-4)GlcNAc(b1-4)GlcNAc
# Outline: (§1)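 The binding signal is a Z-score computed within each array and averaged over linkers. Arrays of the same protein sequence at different concentrations or buffers were also averaged together. Data originate from 3228 arrays in the Consortium for Functional Glycomics database, kept only where the protein sequence was available.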
# [2] = molecular target: GlcNAc(b1-2)[GlcNAc(b1-4)]Man(a1-3)[GlcNAc(b1-4)][GlcNAc(b1-2)[GlcNAc(b1-6)]Man(a1-6)]Man(b1-4)GlcNAc(b1-4)[Fuc(a1-6)]GlcNAc
# Outline: as §1
# [3] = molecular target: GlcNAc(b1-2)[GlcNAc(b1-6)]Man(a1-6)[GlcNAc(b1-2)Man(a1-3)]Man(b1-4)GlcNAc(b1-4)GlcNAc
# Outline: as §1
# [4] = molecular target: GlcNAc(b1-2)[GlcNAc(b1-6)]Man(a1-6)[GlcNAc(b1-2)Man(a1-3)]Man(b1-4)GlcNAc(b1-4)[Fuc(a1-6)]GlcNAc
# Outline: as §1
# [5] = molecular target: GlcNAc(b1-2)[GlcNAc(b1-6)]Man(a1-6)[GlcNAc(b1-4)][GlcNAc(b1-2)Man(a1-3)]Man(b1-4)GlcNAc(b1-4)GlcNAc
# Outline: as §1
# GlcNAc(b1-3)Fuc = molecular target: GlcNAc(b1-3)Fuc
# Outline: as §1
# GlcNAc(b1-3)Gal = molecular target: GlcNAc(b1-3)Gal
# Outline: as §1
# [6] = molecular target: GlcNAc(b1-3)Gal(b1-3)GalNAc
# Outline: as §1
# GlcNAc(b1-3)Gal(b1-4)Glc = molecular target: GlcNAc(b1-3)Gal(b1-4)Glc
# Outline: as §1
# [7] = molecular target: GlcNAc(b1-3)Gal(b1-4)GlcNAc
# Outline: as §1
# [8] = molecular target: GlcNAc(b1-3)Gal(b1-4)GlcNAc(b1-2)Man(a1-3)[GlcNAc(b1-3)Gal(b1-4)GlcNAc(b1-2)Man(a1-6)]Man(b1-4)GlcNAc(b1-4)GlcNAc
# Outline: as §1
# [9] = molecular target: GlcNAc(b1-3)Gal(b1-4)GlcNAc(b1-2)Man(a1-3)[GlcNAc(b1-3)Gal(b1-4)GlcNAc(b1-2)Man(a1-6)]Man(b1-4)GlcNAc(b1-4)[Fuc(a1-6)]GlcNAc
# Outline: as §1
# [10] = molecular target: GlcNAc(b1-3)Gal(b1-4)GlcNAc(b1-2)[GlcNAc(b1-3)Gal(b1-4)GlcNAc(b1-6)]Man(a1-6)[GlcNAc(b1-3)Gal(b1-4)GlcNAc(b1-2)Man(a1-3)]Man(b1-4)GlcNAc(b1-4)GlcNAc
# Outline: as §1
# [11] = molecular target: GlcNAc(b1-3)Gal(b1-4)GlcNAc(b1-3)Gal(b1-4)GlcNAc
# Outline: as §1
# [12] = molecular target: GlcNAc(b1-3)Gal(b1-4)GlcNAc(b1-3)Gal(b1-4)GlcNAc(b1-2)Man(a1-3)[GlcNAc(b1-3)Gal(b1-4)GlcNAc(b1-3)Gal(b1-4)GlcNAc(b1-2)Man(a1-6)]Man(b1-4)GlcNAc(b1-4)GlcNAc
# Outline: as §1
# [13] = molecular target: GlcNAc(b1-3)Gal(b1-4)GlcNAc(b1-3)Gal(b1-4)GlcNAc(b1-2)Man(a1-3)[GlcNAc(b1-3)Gal(b1-4)GlcNAc(b1-3)Gal(b1-4)GlcNAc(b1-2)Man(a1-6)]Man(b1-4)GlcNAc(b1-4)[Fuc(a1-6)]GlcNAc
# Outline: as §1
# [14] = molecular target: GlcNAc(b1-3)Gal(b1-4)GlcNAc(b1-3)Gal(b1-4)GlcNAc(b1-2)[GlcNAc(b1-3)Gal(b1-4)GlcNAc(b1-3)Gal(b1-4)GlcNAc(b1-6)]Man(a1-6)[GlcNAc(b1-3)Gal(b1-4)GlcNAc(b1-3)Gal(b1-4)GlcNAc(b1-2)Man(a1-3)]Man(b1-4)GlcNAc(b1-4)[Fuc(a1-6)]GlcNAc
# Outline: as §1
# [15] = molecular target: GlcNAc(b1-3)Gal(b1-4)GlcNAc(b1-3)Gal(b1-4)GlcNAc(b1-3)Gal(b1-4)GlcNAc(b1-2)Man(a1-3)[GlcNAc(b1-3)Gal(b1-4)GlcNAc(b1-3)Gal(b1-4)GlcNAc(b1-3)Gal(b1-4)GlcNAc(b1-2)Man(a1-6)]Man(b1-4)GlcNAc(b1-4)GlcNAc
# Outline: as §1
# [16] = molecular target: GlcNAc(b1-3)Gal(b1-4)GlcNAc(b1-3)Gal(b1-4)GlcNAc(b1-3)Gal(b1-4)GlcNAc(b1-2)Man(a1-3)[GlcNAc(b1-3)Gal(b1-4)GlcNAc(b1-3)Gal(b1-4)GlcNAc(b1-3)Gal(b1-4)GlcNAc(b1-2)Man(a1-6)]Man(b1-4)GlcNAc(b1-4)[Fuc(a1-6)]GlcNAc
# Outline: as §1
# [17] = molecular target: GlcNAc(b1-3)Gal(b1-4)GlcNAc(b1-3)Gal(b1-4)GlcNAc(b1-3)Gal(b1-4)GlcNAc(b1-2)[GlcNAc(b1-3)Gal(b1-4)GlcNAc(b1-3)Gal(b1-4)GlcNAc(b1-3)Gal(b1-4)GlcNAc(b1-6)]Man(a1-6)[GlcNAc(b1-3)Gal(b1-4)GlcNAc(b1-3)Gal(b1-4)GlcNAc(b1-3)Gal(b1-4)GlcNAc(b1-2)Man(a1-3)]Man(b1-4)GlcNAc(b1-4)[Fuc(a1-6)]GlcNAc
# Outline: as §1
# [18] = molecular target: GlcNAc(b1-3)Gal(b1-4)GlcNAc(b1-3)Gal(b1-4)GlcNAc(b1-3)Gal(b1-4)GlcNAc(b1-3)Gal(b1-4)GlcNAc(b1-2)Man(a1-3)[GlcNAc(b1-3)Gal(b1-4)GlcNAc(b1-3)Gal(b1-4)GlcNAc(b1-3)Gal(b1-4)GlcNAc(b1-3)Gal(b1-4)GlcNAc(b1-2)Man(a1-6)]Man(b1-4)GlcNAc(b1-4)GlcNAc
# Outline: as §1
# [19] = molecular target: GlcNAc(b1-3)Gal(b1-4)GlcNAc(b1-3)Gal(b1-4)GlcNAc(b1-3)Gal(b1-4)GlcNAc(b1-3)Gal(b1-4)GlcNAc(b1-2)Man(a1-3)[GlcNAc(b1-3)Gal(b1-4)GlcNAc(b1-3)Gal(b1-4)GlcNAc(b1-3)Gal(b1-4)GlcNAc(b1-3)Gal(b1-4)GlcNAc(b1-2)Man(a1-6)]Man(b1-4)GlcNAc(b1-4)[Fuc(a1-6)]GlcNAc
# Outline: as §1
# [20] = molecular target: GlcNAc(b1-3)Gal(b1-4)GlcNAc(b1-3)Gal(b1-4)GlcNAc(b1-3)Gal(b1-4)GlcNAc(b1-3)Gal(b1-4)GlcNAc(b1-2)[GlcNAc(b1-3)Gal(b1-4)GlcNAc(b1-3)Gal(b1-4)GlcNAc(b1-3)Gal(b1-4)GlcNAc(b1-3)Gal(b1-4)GlcNAc(b1-6)]Man(a1-6)[GlcNAc(b1-3)Gal(b1-4)GlcNAc(b1-3)Gal(b1-4)GlcNAc(b1-3)Gal(b1-4)GlcNAc(b1-3)Gal(b1-4)GlcNAc(b1-2)Man(a1-3)]Man(b1-4)GlcNAc(b1-4)[Fuc(a1-6)]GlcNAc
# Outline: as §1
# [21] = molecular target: GlcNAc(b1-3)Gal(b1-4)GlcNAc(b1-3)Gal(b1-4)GlcNAc(b1-3)GalNAc
# Outline: as §1
# [22] = molecular target: GlcNAc(b1-3)Gal(b1-4)GlcNAc(b1-3)GalNAc
# Outline: as §1
# [23] = molecular target: GlcNAc(b1-3)Gal(b1-4)GlcNAc(b1-3)[GlcNAc(b1-3)Gal(b1-4)GlcNAc(b1-3)]GalNAc
# Outline: as §1
# [24] = molecular target: GlcNAc(b1-3)Gal(b1-4)GlcNAc(b1-6)[Gal(b1-3)]GalNAc
# Outline: as §1
# [25] = molecular target: GlcNAc(b1-3)Gal(b1-4)GlcNAc(b1-6)[GlcNAc(b1-3)Gal(b1-3)]GalNAc
# Outline: as §1
# [26] = molecular target: GlcNAc(b1-3)Gal(b1-4)GlcNAc(b1-6)[GlcNAc(b1-3)]Gal(b1-4)GlcNAc
# Outline: as §1
# GlcNAc(b1-3)GalNAc = molecular target: GlcNAc(b1-3)GalNAc
# Outline: as §1
# GlcNAc(b1-3)Man = molecular target: GlcNAc(b1-3)Man
# Outline: as §1
# [27] = molecular target: GlcNAc(b1-3)[GlcNAc(b1-4)][GlcNAc(b1-6)]GlcNAc
# Outline: as §1
# [28] = molecular target: GlcNAc(b1-3)[GlcNAc(b1-6)]Gal(b1-4)GlcNAc
# Outline: as §1
# [29] = molecular target: GlcNAc(b1-3)[GlcNAc(b1-6)]GalNAc
# Outline: as §1
# [30] = molecular target: GlcNAc(b1-4)Gal(b1-4)GlcNAc
# Outline: as §1
# GlcNAc(b1-4)GlcNAc = molecular target: GlcNAc(b1-4)GlcNAc
# Outline: as §1
# [31] = molecular target: GlcNAc(b1-4)GlcNAc(b1-4)GlcNAc
# Outline: as §1
# [32] = molecular target: GlcNAc(b1-4)GlcNAc(b1-4)GlcNAc(b1-4)GlcNAc(b1-4)GlcNAc
# Outline: as §1
binder,measurement,setting,value
B1,glycan array binding signal (z-score),[1],-0.343
same,glycan array binding signal (z-score),[2],-0.459
same,glycan array binding signal (z-score),[3],-0.25
same,glycan array binding signal (z-score),[4],-0.01
same,glycan array binding signal (z-score),[5],-0.242
same,glycan array binding signal (z-score),GlcNAc(b1-3)Fuc,-0.272
same,glycan array binding signal (z-score),GlcNAc(b1-3)Gal,-0.511
same,glycan array binding signal (z-score),[6],-0.154
same,glycan array binding signal (z-score),GlcNAc(b1-3)Gal(b1-4)Glc,-0.409
same,glycan array binding signal (z-score),[7],-0.401
same,glycan array binding signal (z-score),[8],-0.422
same,glycan array binding signal (z-score),[9],0.392
same,glycan array binding signal (z-score),[10],0.028
same,glycan array binding signal (z-score),[11],-0.3
same,glycan array binding signal (z-score),[12],0.263
same,glycan array binding signal (z-score),[13],-0.073
same,glycan array binding signal (z-score),[14],-0.185
same,glycan array binding signal (z-score),[15],-0.316
same,glycan array binding signal (z-score),[16],1.52
same,glycan array binding signal (z-score),[17],0.129
same,glycan array binding signal (z-score),[18],1.28
same,glycan array binding signal (z-score),[19],5.78
same,glycan array binding signal (z-score),[20],-0.229
same,glycan array binding signal (z-score),[21],-0.217
same,glycan array binding signal (z-score),[22],-0.5
same,glycan array binding signal (z-score),[23],-0.108
same,glycan array binding signal (z-score),[24],-0.376
same,glycan array binding signal (z-score),[25],0.197
same,glycan array binding signal (z-score),[26],-0.522
same,glycan array binding signal (z-score),GlcNAc(b1-3)GalNAc,-0.167
same,glycan array binding signal (z-score),GlcNAc(b1-3)Man,0.006
same,glycan array binding signal (z-score),[27],-0.212
same,glycan array binding signal (z-score),[28],-0.348
same,glycan array binding signal (z-score),[29],-0.209
same,glycan array binding signal (z-score),[30],-0.385
same,glycan array binding signal (z-score),GlcNAc(b1-4)GlcNAc,-0.24
same,glycan array binding signal (z-score),[31],-0.256
same,glycan array binding signal (z-score),[32],-0.489
